The values that follow come from paper PMC11995724, “Antibiotic target discovery by integrated phenotypic and activity-based profiling of electrophilic fragments” (Cell chemical biology, 2025).

In all, about 3,200 compounds went through this assay and about 75 (2%) showed an effect of 50% or more. Some of the results follow.

This assay relates to T1, S. aureus MSSA476.
T1 construct: MSSA476
The arrangement: species or system S. aureus MSSA476 (TSB) or V. cholerae SAD30 (LB); 384-well bacterial growth screen at 25 uM, OD600 relative to DMSO control. The settings on record: relative growth, OD600, TSB; 25 µM; inhibitor.
For the compound `C=CC(=O)N(C)Cc1nnc(C2CC2)n1C` [2-H11, N-[(5-cyclopropyl-4-methyl-4H-1,2,4-triazol-3-yl)methyl]-N-methylprop-2-enamide], the “% of control remaining” value was 101.654%.
Next, `C=CCNC(=O)C(C#N)=Cc1ccc(-c2ccc(F)cc2)o1` [8-L20, 2-cyano-3-[5-(4-fluorophenyl)furan-2-yl]-N-(prop-2-en-1-yl)prop-2-enamide]: 94.2739%; `COc1ccc(N(CC(F)(F)F)C(=O)CCl)cc1` [4-C15, 2-chloro-N-(4-methoxyphenyl)-N-(2,2,2-trifluoroethyl)acetamide]: 118.152%; `Cc1ccc(C=C(C#N)C(=O)N2CCCC2)cc1` [8-E17, 3-(4-methylphenyl)-2-(pyrrolidine-1-carbonyl)prop-2-enenitrile]: 102.573%.
With `C=CC(=O)N1CCC(C(=O)NC(C)c2cccc(C(F)(F)F)c2)CC1` (centres unmarked) [3-G13, 1-(prop-2-enoyl)-N-{1-[3-(trifluoromethyl)phenyl]ethyl}piperidine-4-carboxamide], the “% of control remaining” value was 98.9116%.
Next, `CC(C)CN(C(=O)CCl)c1cnn(-c2ccccn2)c1` [5-A12, 2-chloro-N-(2-methylpropyl)-N-[1-(pyridin-2-yl)-1H-pyrazol-4-yl]acetamide]: 106.74%; `C=CC(=O)N(CC)CC(=O)N1CCc2[nH]nc(C(F)(F)F)c2C1` [3-A14, N-ethyl-N-{2-oxo-2-[3-(trifluoromethyl)-1H,4H,5H,6H,7H-pyrazolo[4,3-c]pyridin-5-yl]ethyl}prop-2-enamide]: 101.35%.
Regarding `Cn1nccc1CN1C[C@@H](F)C[C@H]1CNC(=O)CCl` [5-C04, 2-chloro-N-{[(2S,4S)-4-fluoro-1-[(1-methyl-1H-pyrazol-5-yl)methyl]pyrrolidin-2-yl]methyl}acetamide], the “% of control remaining” value is 95.4463%.
Next, `Cc1ccc2sc(N(Cc3ccccc3)C(=O)CCl)nc2c1C` [4-K06, N-benzyl-2-chloro-N-(4,5-dimethyl-1,3-benzothiazol-2-yl)acetamide]: 107.861%; `C=CC(=O)N1CCN(C(=O)c2ccco2)CC1` [1-P11, 1-[4-(furan-2-carbonyl)piperazin-1-yl]prop-2-en-1-one]: 90.7253%; `C=CC(=O)N1CCN(Cc2nc(C(C)C)no2)CC1` [3-G11, 1-(4-{[3-(propan-2-yl)-1,2,4-oxadiazol-5-yl]methyl}piperazin-1-yl)prop-2-en-1-one]: 105.181%.
